Assay results: patent US20220112258A1 (I MAB BIOPHARMA US, published 2022)

Tests used:
[1] = target: T1, IL7R of human primary CD4+ T cells (human, UniProt P16871 21-459); experiment: cell-based or functional assay
T1 sequence (looked up): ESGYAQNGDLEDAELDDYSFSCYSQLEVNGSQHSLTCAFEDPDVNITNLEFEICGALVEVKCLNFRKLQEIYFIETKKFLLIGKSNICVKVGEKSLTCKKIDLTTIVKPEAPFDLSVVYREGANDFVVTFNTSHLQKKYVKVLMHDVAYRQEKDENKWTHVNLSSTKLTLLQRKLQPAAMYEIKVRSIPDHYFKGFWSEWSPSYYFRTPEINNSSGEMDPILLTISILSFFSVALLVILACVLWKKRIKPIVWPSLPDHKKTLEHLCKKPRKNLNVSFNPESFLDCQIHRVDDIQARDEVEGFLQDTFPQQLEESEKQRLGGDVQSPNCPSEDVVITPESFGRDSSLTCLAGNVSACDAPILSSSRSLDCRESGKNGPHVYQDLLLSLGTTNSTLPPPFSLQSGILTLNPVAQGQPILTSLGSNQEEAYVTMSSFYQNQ

[2] = target: T2, recombinant human his-tagged PD-L1 protein (human, UniProt Q9NZQ7 part only); experiment: SPR (Biacore T200), ligand captured on protein A chip, hPDL1-his as analyte
T2 construct: also called hPDL1-his; his-tagged human PD-L1; not shown: his tag
Description: (§1) A series of dilutions of human PD-L1 protein were injected over captured antibody at a flow rate of 10 μL/min. […] All the experiments were carried out on a Biacore T200. Data analysis was carried out using Biacore T200 evaluation software.

[3] = target: T2, recombinant human his-tagged PD-L1 …; experiment: ELISA, his-tagged PDL1 coated, OD450
Source text: Briefly, for ELISA-based binding, his-tagged PDL1 was used as coating protein.

[4] = target: T2, recombinant human his-tagged PD-L1 …; experiment: SPR (Biacore T200), fusion molecule captured on protein A chip, his-tagged human PD-L1 injected
Description: as §1

[5] = target: T3, PD-L1 expressed on cells (Raji-PD-L1; tumor cell lines RKO, HCC1954, HCC827) (human, UniProt Q9NZQ7); experiment: flow cytometry on Raji-PD-L1 cells, PE anti-human IgG Fc, MFI
T3 construct: whole, on cells; also called cell-surface expressed PD-L1; cell surface PD-L1
Description: After washing by FACS staining buffer, the PE-conjugated anti-human IgG Fc specific antibody was added to each well and incubated on ice for 30 mins. The MFI of PE were evaluated by FACS Celesta.

[6] = target: T3, PD-L1 expressed on cells (Raji-PD-L1; …); experiment: flow cytometry on RKO colon carcinoma cells, MFI
[7] = target: T3, PD-L1 expressed on cells (Raji-PD-L1; …); experiment: flow cytometry on HCC827 lung cancer cells, MFI
[8] = target: T3, PD-L1 expressed on cells (Raji-PD-L1; …); experiment: flow cytometry on HCC1954 breast cancer cells, MFI

- fold decrease in EC50 of CD4+ T cell proliferation against L1I7^WT, six donors [1]: 200 to 1000 fold
B1: L1I7^142A Format 2 (anti-PD-L1 version not stated in the passage) (Fc fusion, part only; not given: anti-PD-L1 heavy and light chains, part only)
chain: DCDIEGKDGKQYESVLMVSIDQLLDSMKEIGSNCLNNEFNFFKRHICDANKEGMFLFRAARKLRQFLKMNSTGDFDLHLLKVSEGTTILLNCTGQVKGRKPAALGEAQPTKSLEENKSLKEQKKLNDLCFLKRLLQEIKTCANKILMGTKEH[human IgG1 Fc with changes not listed]

- Kd [2]: 0.932 nM
- koff [2]: 0.000745 s⁻¹
- kon [2]: 800000 M⁻¹ s⁻¹
- EC50 [3]: 0.65 nM
- Kd [4]: 0.745 nM
- koff [4]: 0.000653 s⁻¹
- kon [4]: 877000 M⁻¹ s⁻¹
- EC50 [5]: 0.37 nM
B2: L1I7^WT(anti-PD-L1 v4) Format 2 (Fc fusion)
heavy: QVQLLESGGGLVQPGGSLRLSCAASGFTFSSYWMSWVRQAPGKGLEWVANIKQDGSEKYYVDSVKGRFTISRDNAKNSLYLQMNSLRAEDTAVYYCARVALWDDAFDIWGQGTMVTVSSASTKGPSVFPLAPSSKSTSGGTAALGCLVKDYFPEPVTVSWNSGALTSGVHTFPAVLQSSGLYSLSSVVTVPSSSLGTQTYICNVNHKPSNTKVDKKVEPKSCQVQLLESGGGLVQPGGSLRLSCAASGFTFSSYWMSWVRQAPGKGLEWVANIKQDGSEKYYVDSVKGRFTISRDNAKNSLYLQMNSLRAEDTAVYYCARVALWDDAFDIWGQGTMVTVSSASTKGPSVFPLAPSSKSTSGGTAALGCLVKDYFPEPVTVSWNSGALTSGVHTFPAVLQSSGLYSLSSVVTVPSSSLGTQTYICNVNHKPSNTKVDKKV[human IgG1 Fc with changes not listed]
chain: DCDIEGKDGKQYESVLMVSIDQLLDSMKEIGSNCLNNEFNFFKRHICDANKEGMFLFRAARKLRQFLKMNSTGDFDLHLLKVSEGTTILLNCTGQVKGRKPAALGEAQPTKSLEENKSLKEQKKLNDLCFLKRLLQEIKTCWNKILMGTKEH[human IgG1 Fc with changes not listed]
light: DIQMTQSPSTLSASVGDRVIITCRASRGISSWLAWYQQKPGKAPNLLISKASSLESGVPSRFSGSGSGTDFTLTISSLQPEDFATYYCQQSSSIPLTFGGGTKVEIKRTVAAPSVFIFPPSDEQLKSGTASVVCLLNNFYPREAKVQWKVDNALQSGNSQESVTEQDSKDSTYSLSSTLTLSKADYEKHKVYACEVTHQGLSSPVTKSFNRGEC
notes: Format 2: Fab-Fab-Fc chain, IL7-Fc chain, two light chains; also called L1I7^WT Format 2

- Kd [2]: 2.51 nM
- koff [2]: 0.000204 s⁻¹
- kon [2]: 81400 M⁻¹ s⁻¹
- EC50 [3]: 0.11 nM
B3: L1I7^WT(anti-PD-L1 v3) Format 2 (Fc fusion)
heavy: EVQLVESGGGLVQPGGSLRLSCAASGFTFSSYDMSWVRQAPGKSLEWVATISDAGGYIYYSDSVKGRFTISRDNAKNSLYLQMNSLRDEDTAVYICAREFGKRYALDYWGQGTTVTVSSASTKGPSVFPLAPSSKSTSGGTAALGCLVKDYFPEPVTVSWNSGALTSGVHTFPAVLQSSGLYSLSSVVTVPSSSLGTQTYICNVNHKPSNTKVDKKVEPKSCEVQLVESGGGLVQPGGSLRLSCAASGFTFSSYDMSWVRQAPGKSLEWVATISDAGGYIYYSDSVKGRFTISRDNAKNSLYLQMNSLRDEDTAVYICAREFGKRYALDYWGQGTTVTVSSASTKGPSVFPLAPSSKSTSGGTAALGCLVKDYFPEPVTVSWNSGALTSGVHTFPAVLQSSGLYSLSSVVTVPSSSLGTQTYICNVNHKPSNTKVDKKV[human IgG1 Fc with changes not listed]
chain: DCDIEGKDGKQYESVLMVSIDQLLDSMKEIGSNCLNNEFNFFKRHICDANKEGMFLFRAARKLRQFLKMNSTGDFDLHLLKVSEGTTILLNCTGQVKGRKPAALGEAQPTKSLEENKSLKEQKKLNDLCFLKRLLQEIKTCWNKILMGTKEH[human IgG1 Fc with changes not listed]
light: DIQMTQSPSSLSASVGDRVTITCKASQDVTPAVAWYQQKPGKAPKLLIYSTSSRYTGVPSRFSGSGSGTDFTFTISSLQPEDIATYYCQQHYTTPLTFGQGTKLEIKRTVAAPSVFIFPPSDEQLKSGTASVVCLLNNFYPREAKVQWKVDNALQSGNSQESVTEQDSKDSTYSLSSTLTLSKADYEKHKVYACEVTHQGLSSPVTKSFNRGEC
notes: Asymmetrical Format 2: heavy chain-1 Fab-Fab-Fc, heavy chain-2 IL7-Fc, two light chains paired to the longer heavy chain; also called L1I7^WT Format 2; anti-PDL1-IL7 wild type

- EC50 [3]: 0.81 nM
- EC50 [6]: 0.17 nM
- EC50 [7]: 0.82 nM
- Kd [4]: 0.741 nM
- koff [4]: 0.000709 s⁻¹
- kon [4]: 957000 M⁻¹ s⁻¹
- EC50 [5]: 0.29 nM
- EC50 [8]: 0.53 nM
B4: L1I7^142A (anti-PD-L1 v4) Format 2 (Fc fusion)
heavy: QVQLLESGGGLVQPGGSLRLSCAASGFTFSSYWMSWVRQAPGKGLEWVANIKQDGSEKYYVDSVKGRFTISRDNAKNSLYLQMNSLRAEDTAVYYCARVALWDDAFDIWGQGTMVTVSSASTKGPSVFPLAPSSKSTSGGTAALGCLVKDYFPEPVTVSWNSGALTSGVHTFPAVLQSSGLYSLSSVVTVPSSSLGTQTYICNVNHKPSNTKVDKKVEPKSCQVQLLESGGGLVQPGGSLRLSCAASGFTFSSYWMSWVRQAPGKGLEWVANIKQDGSEKYYVDSVKGRFTISRDNAKNSLYLQMNSLRAEDTAVYYCARVALWDDAFDIWGQGTMVTVSSASTKGPSVFPLAPSSKSTSGGTAALGCLVKDYFPEPVTVSWNSGALTSGVHTFPAVLQSSGLYSLSSVVTVPSSSLGTQTYICNVNHKPSNTKVDKKV[human IgG1 Fc with changes not listed]
chain: DCDIEGKDGKQYESVLMVSIDQLLDSMKEIGSNCLNNEFNFFKRHICDANKEGMFLFRAARKLRQFLKMNSTGDFDLHLLKVSEGTTILLNCTGQVKGRKPAALGEAQPTKSLEENKSLKEQKKLNDLCFLKRLLQEIKTCANKILMGTKEH[human IgG1 Fc with changes not listed]
light: B2 light
notes: Format 2 with IL-7 W142A

One block for each binder: values may come before it.
